# This is one part of the list.
# System: T1, C. trachomatis L2/434/Bu expressing GFP (CTL2-GFP)
# T1 construct: L2/434/Bu GFP intracellular growth in HeLa cells
# Parameters: species or system HeLa; C. trachomatis total inclusion area by high-content imaging, normalised to DMSO
# Conditions: total inclusion area; 28.5 h, 10 µM; inhibitor
# Description: In this process, we also complemented the assay described above with an imaging-based readout (Fig 1B). After measurements of bulk GFP and resorufin fluorescence, cells were fixed, stained with the DNA dye Hoechst, and imaged at a high-content imaging platform to detect chlamydial inclusions (GFP) and host cell nuclei (Hoechst). The total area and number of inclusions in individual wells and the number of nuclei then served as additional proxies for chlamydial growth and host cell viability. […] MICs were calculated as described above.
row,SMILES,% of control remaining
1,CS(=O)(=O)Nc1nccnc1OC1CCN(CC2CCCCC2)CC1 [CBK084284],89.9022
2,O=c1c2cnc3ccnn3c2ccn1C1CCCC1 [CBK288074],6.4521
3,Cc1nc(-c2ccccc2)sc1CNC(=O)/C=C\C(=O)Nc1ccc(F)cc1 [CBK092357],111.417
4,CC(Cn1cccn1)C(=O)N1CCc2sccc2C1C (stereo not drawn) [CBK282074],90.3915
5,CN(C)c1cccc(Nc2cc(-c3cccc([N+](=O)[O-])c3)ncn2)c1 [CBK091012],88.4662
6,Cc1ccc(Cl)cc1N(CC(=O)Nc1ccccc1C(=O)O)S(C)(=O)=O [CBK264020],128.477
7,O=C(NCCCn1ccnc1)c1cc(-c2ccccc2Cl)nc2ccccc12 [CBK262656],106.918
8,O=C(NCc1cccs1)C1(c2ccccc2)CCCC1 [CBK149533],110.696
9,O=C(NCC(c1cccnc1)N1CCOCC1)c1cnc(-c2ccc(Cl)cc2)c(-c2ccco2)c1 (stereo not drawn) [CBK037554],144.534
10,Fc1ccccc1-c1nccnc1NCc1cccs1 [CBK038088],142.56
11,CCc1nn(CCN2CCCC2)c(=O)c2cc3sc(C)cc3n12 [CBK284098],90.5922
12,CC(C)c1ccc(S(=O)(=O)Nc2ccc(O)c(Sc3nc[nH]n3)c2)cc1 [CBK266861],96.1358
13,CS(=O)(=O)Nc1ccc(CC#N)cc1 [CBK038145],28.8908
14,CN(C(=O)C1CC1)C1CCN(c2ncnc3ccccc23)CC1 [CBK304946],57.3747
15,Cc1ccc(C#N)c(S(=O)(=O)Nc2cc(N3C[C@@H](C)N[C@@H](C)C3)c3occc3c2)c1 [CBK034756C],68.0007
16,NC(=O)N1CCC(C(=O)N2CC3(CCCC3)c3c(F)cccc32)CC1 [CBK304973],43.4598
17,CN1CCN(c2ccc(-c3cncc(N4CCN(c5ccncc5)CC4)n3)cn2)CC1 [CBK065144],82.7199
18,COc1ccc(N2CCN(c3cncc(-c4cc(OC)c(OC)c(OC)c4)n3)CC2)cc1OC [CBK037988],91.9514
19,CC(=O)Nc1cccc(-c2cnc3[nH]c(=O)n([C@@H](C)c4ccccc4)c3n2)c1 [CBK064159],83.8129
20,O=C(O)c1ccc2c(c1)C(=O)N(c1ccc(-c3ccnc(-c4ccc(N5C(=O)c6ccc(C(=O)O)cc6C5=O)cc4)n3)cc1)C2=O [CBK261192],93.9699
21,c1cc(CNc2nccnc2-c2ccsc2)ccn1 [CBK037513],100.154
22,COc1ccc(-c2cc(C(=O)NCC(=O)O)c(C)o2)cc1OC [CBK287130],98.9287
23,Cc1nn(C)cc1-c1cncn1CCCOc1ccc(Cl)cc1 [CBK281787],101.271
24,O=C(O)c1ccc(C(=O)O)c(-c2ccccc2)c1 [CBK261102],81.7608
25,CCCC(=O)Nc1ccc(C(=O)Nc2ccccc2C(=O)O)cc1 [CBK265111],129.922
26,O=C(O)c1ccccc1SC1CCc2ccccc2NC1=O (stereo not drawn) [CBK286683],71.345

row,SMILES,% of control remaining
1,Cc1ccccc1NS(=O)(=O)c1cc(C(=O)Nc2ccc(S(=O)(=O)N3CCCC3)cc2)ccc1C [CBK269004],85.8935
2,Fc1ccc(OCc2nnn[nH]2)c(F)c1 [CBK269473],93.3654
3,Cc1ccccc1C(=O)N/N=C/c1ccc(Sc2nnnn2-c2ccccc2)o1 [CBK263259],97.839
4,O=C(N[C@H]1CO[C@H]2[C@@H]1OC[C@@H]2Nc1nccc(-c2cccs2)n1)C1CC1 [CBK289517],70.1679
5,CCOC(=O)c1cnn(C2CCCN(Cc3cc(C#N)cs3)C2)c1 (stereo not drawn) [CBK305399],88.9838
6,CC(C(=O)O)N1C(=O)c2ccccc2C1c1c[nH]c2ccccc12 (stereo not drawn) [CBK286576],48.8596
7,CC1CCC/C(=N\NC(=O)C2C3CCCCC32)C1 (stereo not drawn) [CBK025750],73.5956
8,Cc1nc(C2CCCC2)cc([C@H]2CN3CC[C@H]2C[C@@H]3CNS(C)(=O)=O)n1 [CBK289121],111.365
9,CNS(=O)(=O)c1cc(C(=O)O)c(OC)cc1OC [CBK110325],95.09
10,CN(C)c1ncc(Br)cc1C(=O)NCCNS(=O)(=O)c1ccccc1 [CBK076504],90.3719
11,COc1cc(/C=C2\SC(=N)NC2=O)cc(Br)c1OS(=O)(=O)c1ccc(C)cc1 [CBK263609],116.551
12,COc1cccc(C(=O)N2CCC(NC(=O)c3cc(F)ccc3F)CC2)c1 [CBK155026],66.3578
13,O=c1cc(N2CCN(CC3(O)CCNC3)CC2)c(-c2ccccc2)n[nH]1 (stereo not drawn) [CBK307088],37.3581
14,Cc1c(C)n(Cc2cccnc2)c2ncn(C3CCCCCC3)c(=N)c12 [CBK287932],58.93
15,O=C(N/N=C\C=C\c1ccco1)c1ccc([N+](=O)[O-])cc1 [CBK261961],106.711
16,CC(C)(C)CN1CCC(Oc2nccnc2OCc2ccc(Br)cc2F)CC1 [CBK161946],103.468
17,c1ccc(Sc2nccnc2N2CCCC2)nc1 [CBK093734],101.481
18,O=C(CO)N1CC2(CCN(CC3COc4ccccc4O3)CC2)c2ccccc21 (stereo not drawn) [CBK143951],87.6705
19,NC(=O)Cn1cc(C(=O)c2ccncc2)c(=O)c2cc(Cl)ccc21 [CBK288584],90.8325
20,N#Cc1ccc(NC(=O)CSc2cnn[nH]2)cc1 [CBK269931],91.6334
21,CC(=O)Nc1ccc(S(=O)(=O)Nc2cc(C)c(-n3nc4ccccc4n3)cc2O)cc1 [CBK268382],103.001
22,Clc1ccc(COc2cc(N3CCCN(Cc4ccccc4-c4ccccc4)CC3)ncn2)cc1Cl [CBK083781T],71.4344
23,CNC(=O)C1(Cc2ccc(-c3ccccc3)cc2)CCN(C(=O)c2cccc(OC)c2)CC1 [CBK285788],92.3964
24,CC(Oc1ccc(Cl)cc1Cl)C(=O)NCCc1cccc(Cl)c1 (stereo not drawn) [CBK265489],96.7087
25,Nc1ccc(-c2nnc(SCC(=O)Nc3ccc(Br)cc3F)n2-c2ccccc2)cc1 [CBK267175],115.397
26,COc1ccc(C(C)C)cc1-c1cncc(NCCc2c[nH]c3ccccc23)n1 [CBK065174],71.7547

row,SMILES,% of control remaining
1,OC1(c2ccccc2)CCN(Cc2cncn2Cc2ccccc2)C1 (stereo not drawn) [CBK282809],85.3967
2,CC(C)(CO)CNC(=O)c1cnc(-c2ccccc2)c(-c2ccncc2)c1 [CBK036734],88.5484
3,CCOC(=O)C1CCCN(Cc2nnsc2Cl)C1 (stereo not drawn) [CBK304848],43.3712
4,CC(C)[C@@H](CO)Nc1nccnc1-c1ccc(CN)cc1 [CBK036640],145.76
5,Cc1cc(C2CCCCCN2C(=O)c2c(C)noc2C)on1 (stereo not drawn) [CBK284844],85.6566
6,Cc1ccc(S(=O)(=O)Nc2ccc(Nc3cc(-c4cccc([N+](=O)[O-])c4)ncn3)cc2)cc1 [CBK090983],115.128
7,COc1cccc([C@H]2CN(C(=O)c3ccccc3)[C@@H]3CCN(Cc4cccs4)C[C@H]23)c1 [CBK285609],83.8758
8,COc1ccc(OC(C)C(=O)Nc2ccc(C(=O)O)cc2)cc1 (stereo not drawn) [CBK263622],79.2529
9,CCOc1ccc(CN2CCN(CC(=O)Nc3cc(C)on3)CC2)cc1 [CBK306116],39.2348
10,COc1ccc(N2C(=O)CC(N3CCN(c4ccc(S(=O)(=O)N5CCCC5)cc4)CC3)C2=O)cc1 (stereo not drawn) [CBK268851],97.1951
11,CC#CC(=O)N1CCCC(Cc2ccc(F)cc2F)(C(=O)OCC)C1 (stereo not drawn) [CBK307051],58.0484
12,CSc1ccc(-c2nc(NC(=O)C(C)C)cc3cccnc23)cc1 [CBK081262],75.6065
13,COCC1CCN(C(=O)Nc2ccc(F)c(N3CCCNC3=O)c2)C1 (stereo not drawn) [CBK305487],63.0494
14,CC(NC(=O)c1ccccc1Br)c1nnc(SCc2ccc([N+](=O)[O-])cc2)n1C (stereo not drawn) [CBK267810],87.8404
15,CN1C[C@@H](NC(=O)c2cccnc2)C[C@H]1c1nc(-c2cccnc2)no1 [CBK288857],103.252
16,CC1CC(C)CN(C(=O)CN2C(=O)N3CCN=C3c3ccccc32)C1 (stereo not drawn) [CBK283960],103.264
17,COc1cc(Nc2cccc(-c3cccc(NC(C)=O)c3)n2)cc(OC)c1OC [CBK037698],77.5777
18,O=C(O)c1ccccc1NC(=O)N1CCc2[nH]cnc2C1c1cccc(F)c1 (stereo not drawn) [CBK286824],102.154
19,c1cc(CCNc2cc(-c3ccc4c(c3)OCO4)ncn2)ccn1 [CBK037689],103.693
20,Cc1cc(NC(=O)NC2CCOc3ccccc32)no1 (stereo not drawn) [CBK304581],23.2199
21,CCCN(CCc1ccc(C(F)(F)F)cc1)C1Cc2cc(OC)c(OC)cc2C1 [CBK017829C],29.5023
22,O=C(CSS(=O)(=O)O)NCc1ccccc1 [CBK260897N],112.97
23,Cc1cc(CN(C)Cc2ccc(-n3ccnc3C)cc2)n[nH]1 [CBK281989],104.837
24,Cc1nccn1CCCn1cncc1-c1cnn(C2CCCCC2)c1 [CBK281816],93.2227
25,CCN(CC)C(=O)CNS(=O)(=O)c1ccc(C)cc1 [CBK034491],106.144
26,COc1ccc(C(CNCC(O)COc2cccc3c2CCCC3)c2ccccc2)cc1 (stereo not drawn) [CBK028144],11.341

# Source: PMC12040169 (PLOS Biology, 2025)
